From PubChem BioAssay AID686978 (National Center for Advancing Translational Sciences (NCATS), 2013)
Where “and” joins values, the source holds several entries; their conditions need not be identical. Equal entries are not always repeated. The campaign covered roughly 420,000 compounds. About 64,000 (15%) were called active. Inconclusive results, whose numbers are uncertain, are shown with a selection of clear calls. Calls come from the whole dose curve; as a rule, active = well fitted inhibition curve with a large enough effect; inconclusive = small, poorly fitted or top-dose-only effect; inactive = flat fitted curve, though single readings scatter. Potencies of inconclusive entries are doubtful fits and often do not repeat.
% is set by controls: 0 for no effect and ±100 for the full control effect; potency is the fitted concentration of half-maximal effect; tags give direction and shape of the fitted curve.

Test: qHTS for Inhibitors of human tyrosyl-DNA phosphodiesterase 1 (TDP1): qHTS in cells in absence of CPT; note: nearly all actives have a fitted effect of over 55% in size
Conditions: DT40 Tdp1-/- hTDP1 cells, no CPT, ATP luminescence, 48 h; activity change, negative = growth inhibition: at 46.2 µM (top of the series) unless noted
Method in brief: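 Growth of hTDP1-complemented DT40 Tdp1-knockout cells is measured by ATP luminescence after at least 48 hr compound exposure at 37 °C, with DMSO substituting for the 20 nM CPT used in the parallel screen.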
For `Cc1cc2c(SCC(=O)N3CCN(c4ccccc4)CC3)ncnc2s1`, the Potency was inconclusive: 29.1 µM [inhibitor, single point]. With `CC(C)COc1ccc(C(=O)Nc2cc(-c3ccccc3)no2)cc1` the Potency was inconclusive: 10.3 µM [inhibitor, partial curve]. For `O=C(Cn1cnc2ccccc2c1=O)NCCC(=O)Nc1ccc(F)cc1`, the Potency was “inactive”. For `COc1ccc(NC(=O)COC(=O)c2n[nH]c3ccccc23)c(OC)c1`, the Potency was inconclusive: 29.1 µM [inhibitor, single point]. With `CCOCCCNS(=O)(=O)c1ccc(NC(=O)C2CC(=O)N(c3ccc(C)cc3)C2)cc1` (stereo not given) the Potency was inconclusive: 16.4 µM [inhibitor, single point]. With `O=S(=O)(Cc1c(F)cccc1Cl)c1ncn[nH]1` the Potency was “inactive”. For `CCOC(=O)C1CCN(c2ncnc3c2cnn3-c2ccc(Cl)cc2)CC1`, the Potency was inconclusive: 18.4 µM [inhibitor, single point]. For `COc1ccccc1NC(=O)NCCC1=CCCCC1`, the Potency was inconclusive: 29.1 µM [inhibitor, single point]. In the case of `CCOc1cc(N2CCOCC2)c(OCC)cc1NC(=O)c1ccc(NC(C)=O)cc1`, the Potency is reported as “inactive”. With `COc1cccc2oc(-c3ccc(O)cc3)cc(=O)c12` the Potency was “inactive”. With `O=c1c2cn[nH]c2nc(SCc2c(F)cccc2F)n1-c1ccc(Cl)cc1` the Potency was inconclusive: 7.31 µM [inhibitor, partial curve, poor fit] and inconclusive: 23.1 µM [inhibitor, partial curve, poor fit]. In the case of `COc1ccc(CC(=O)NCc2nnc(SCC(=O)Nc3ccccc3)n2C)cc1`, the Potency is reported as “inactive”. With `CCCCN(CC)CCCNC(=O)Cn1ncc2c([nH]c3ccc(C)cc32)c1=O` the Potency was inconclusive: 18.4 µM [inhibitor, single point]. For `O=C(CSc1ccc(C(F)(F)F)cc1[N+](=O)[O-])Nc1ccc2ccccc2c1`, the Potency was inconclusive: 16.4 µM [inhibitor, single point]. For `CCOc1ccc(-n2c(CCc3ccccc3)n[nH]c2=S)cc1`, the Potency was inconclusive: 29.1 µM [inhibitor, single point]. For `N#Cc1cc2c(nc1SCc1cccnc1)CCC2`, the activity change, negative = growth inhibition was inconclusive: -32.6% [inhibitor]. In the case of `O=c1c2cc(N3CCOCC3)ccc2[nH]c(=S)n1Cc1cccc(Cl)c1`, the Potency is reported as inconclusive: 29.1 µM [inhibitor, partial curve, poor fit]. In the case of `CCCCC(CC)c1nnc(NC(=O)c2cccs2)s1` (stereo not given), the Potency is reported as inconclusive: 23.1 µM [inhibitor, single point]. In the case of `CCOc1ccccc1OCC(=O)NCCc1ccc(S(N)(=O)=O)cc1`, the Potency is reported as “inactive”. With `COCCCNC(=S)N1CCCN(c2nc3cc(C)ccc3cc2C#N)CC1` the Potency was inconclusive: 16.4 µM [inhibitor, single point]. In the case of `O=C(c1ccco1)N1CCN(C(=O)C(Sc2ccccc2)c2ccccc2)CC1` (stereo not given), the Potency is reported as inconclusive: 13 µM [inhibitor, partial curve]. In the case of `COc1ccc(C(O)c2nc3ccccc3n2C(C)C)cc1` (stereo not given), the Potency is reported as active: 16.4 µM. With `O=C1/C(=C/c2ccccc2)SC(=S)N1N1C(=O)C2CC2C1=O` (stereo not given) the Potency was inconclusive: 29.1 µM [inhibitor, single point]. With `Cc1cc(C)cc(C(=O)Nc2nc3ccccc3[nH]2)c1` the Potency was active: 23.1 µM. With `COc1ccc2c(c1)c(=O)oc1c(C)c(OC(C)C(=O)NCC3CCC(C(=O)O)CC3)ccc12` (stereo not given) the activity change, negative = growth inhibition was inconclusive: -36.6% [inhibitor]. In the case of `O=c1c(CCc2ccccc2)nc2cncnc2n1-c1ccccc1`, the Potency is reported as inconclusive: 20.6 µM [inhibitor, single point]. For `CCOC(=O)c1sc(N)c(C#N)c1CSc1nc2ccc(C)cc2[nH]1`, the Potency was inconclusive: 23.1 µM [inhibitor, single point]. In the case of `CC(=O)SC(C[N+](=O)[O-])c1cn(C(C)=O)c2ccccc12` (stereo not given), the Potency is reported as active: 2.91 µM. For `O=C(NCc1ccco1)c1ccc2c(c1)N(Cc1ccc(F)cc1)C(=O)c1ccccc1S2(=O)=O`, the Potency was active: 14.6 µM. With `CCCCN1C(=O)C(O)(CC(=O)c2ccc(C)cc2C)c2cc(Br)ccc21` (stereo not given) the Potency was active: 16.4 µM. In the case of `CCOc1ccccc1Nc1cc(C)nc2ccc(C)cc12`, the Potency is reported as active: 20.6 µM. In the case of `O=C(Nc1nc2ccc(SC(F)F)cc2s1)c1ccc(NS(=O)(=O)c2ccc(F)c(F)c2)cc1`, the Potency is reported as inconclusive: 18.4 µM [inhibitor, single point]. In the case of `COc1ccc2c(c1)C/C(=C\c1ccc(N(C)C)cc1)C2=O`, the Potency is reported as inconclusive: 35.5 µM [inhibitor, single point]. With `Cc1ccc(Nc2oc(C)nc2C#N)cc1` the Potency was “inactive”. In the case of `CCn1c(-c2ccccc2Cl)nn(CC(=O)NCCc2ccccc2)c1=S`, the Potency is reported as inconclusive: 29.1 µM [inhibitor, single point]. For `CN1\C(=C/C=C/C=C/C=[N+](C)C)C(C)(C)c2ccccc21`, the Potency was active: 2.31 µM. In the case of `COc1ccc(N(CC(=O)N2CCN(c3ccc(F)cc3)CC2)S(=O)(=O)c2c(C)noc2C)cc1`, the Potency is reported as inconclusive: 29.1 µM [inhibitor, single point]. For `CCOc1ccc(C)cc1S(=O)(=O)n1nc(C)cc1C`, the Potency was “inactive”. In the case of `CC(C)Oc1cc(F)ccc1-c1cc(C(=O)Nc2ccc(F)cc2)[nH]n1`, the Potency is reported as inconclusive: 25.9 µM [inhibitor, partial curve]. In the case of `COc1cccc(CN2C(=O)CN(C3CCCCC3)C(=O)C2c2ccc(F)cc2)c1` (stereo not given), the Potency is reported as inconclusive: 8.91 µM [inhibitor, partial curve]. With `C/C(=N\NC(=O)c1nc(C)cc(C)n1)c1ccccc1` the Potency was “inactive”. For `COc1cccc(CNC(=O)c2cc(Sc3cccc(Cl)c3)nc3ccccc23)c1`, the Potency was active: 14.6 µM. With `CC(C)CN(C[C@@H](OP(=O)(O)O)[C@H](Cc1ccccc1)NC(=O)O[C@H]1CCOC1)S(=O)(=O)c1ccc(N)cc1` the Potency was “inactive”. For `O=[N+]([O-])c1ccc(-c2csc(Nc3ccccc3)[n+]2Cc2ccccc2)cc1`, the Potency was active: 20.6 µM. For `Cc1cc(NC(=O)CSc2nnc(C)o2)no1`, the Potency was “inactive”. For `CCOc1ccc(CC(=O)N/N=C/c2cccnc2)cc1OCC`, the Potency was “inactive”. With `COc1ccccc1NC(=O)COc1ccc(-c2nn(C)c(=O)c3ccccc23)cc1` the Potency was active: 7.31 µM. For `Cn1cc([C@]2(O)C(=O)N(c3ccccc3)c3ccccc32)c2ccccc21`, the Potency was inconclusive: 29.1 µM [inhibitor, single point]. With `COC(=O)c1cc(C)sc1NC(=O)C1CC(=O)NN1Cc1ccccc1` (stereo not given) the Potency was inconclusive: 20.6 µM [inhibitor, single point]. For `CCCn1c(=O)c2c(nc3n2CCCN3Cc2ccccc2)n(C)c1=O`, the Potency was “inactive”. For `Cc1ccc2oc(=O)n(Cc3ccccc3OC(C)C)c2c1`, the Potency was active: 14.6 µM. In the case of `O=C(CNc1cccc(Cl)c1)c1ccc(Br)cc1`, the Potency is reported as inconclusive: 29.1 µM [inhibitor, single point]. With `Cn1cccc1Cc1nnc(SCC(=O)NCc2ccc(F)cc2)n1-c1ccc(F)cc1` the Potency was “inactive”. For `CCCCOc1ccc(S(=O)(=O)n2c(C)nc3ccccc32)cc1`, the Potency was inconclusive: 13 µM [inhibitor, partial curve]. In the case of `COc1cc2ccccc2cc1C(=O)N1CCc2ccccc21`, the Potency is reported as active: 14.6 µM. In the case of `CCC(C)(C)NC(=O)C(c1cccc(OC)c1OC)N(CCC(C)C)C(=O)CCC(=O)Nc1cc(C)on1` (stereo not given), the Potency is reported as inconclusive: 29.1 µM [inhibitor, single point]. In the case of `Cc1cc(C)cc(-n2nnnc2SCC(=O)Nc2nc(-c3ccc(Cl)cc3)cs2)c1`, the Potency is reported as inconclusive: 29.1 µM [inhibitor, single point]. In the case of `CCc1ccc([C@@H]2C[C@H]3[C@@H](CN2S(=O)(=O)c2ccc(C)cc2)C(=O)C[C@@H](c2ccc(C)cc2)N3S(=O)(=O)c2ccc(C)cc2)cc1`, the Potency is reported as inconclusive: 29.1 µM [inhibitor, single point]. In the case of `O=C(Nc1ccc2c(c1)CCC2)c1ccc(F)c(S(=O)(=O)N2CCOCC2)c1`, the Potency is reported as active: 23.1 µM. In the case of `Cc1c(C(=O)N2CCOCC2)oc2c1-c1nn(CC(=O)NCc3cccc(Cl)c3)cc1CC2`, the Potency is reported as active: 16.4 µM. With `COc1cccc(-c2cnc3c(NC=O)cc(-c4ccc(N(C)C)cc4)cn23)c1` the Potency was active: 8.2 µM. With `Cc1ccc(CCNC(=O)C2CC(c3cc(C(F)(F)F)cc(C(F)(F)F)c3)=NO2)cc1` (stereo not given) the Potency was inconclusive: 25.9 µM [inhibitor, single point]. With `O=C1CC(c2ccc(F)cc2)Sc2ccccc2N1` (stereo not given) the activity change, negative = growth inhibition was inconclusive: -30.8% [inhibitor]. In the case of `O=C(NNc1nc(Nc2ccccc2)nc(N2CCOCC2)n1)Nc1ccc(Cl)cc1`, the Potency is reported as inconclusive: 29.1 µM [inhibitor, single point]. With `O=C(/C=C/C=C/c1ccccc1)CC1(O)C(=O)N(CCc2ccccc2)c2ccccc21` (stereo not given) the Potency was active: 18.4 µM. In the case of `COc1ccc(OCc2cc(C(=O)NCCN3CCCc4ccccc43)no2)c(Cl)c1`, the Potency is reported as active: 18.4 µM. With `Cc1cc(NS(=O)(=O)c2ccc(NC(=O)/C=C/c3ccccc3Cl)cc2)no1` the Potency was inconclusive: 8.2 µM [inhibitor, partial curve, poor fit]. With `CCN(CC)c1ccc(/C=C/C(=O)C2C(=O)C=C(C)OC2=O)cc1` (stereo not given) the Potency was inconclusive: 14.6 µM [inhibitor, single point]. For `O=C(NCc1cccc(F)c1)c1ccc(NC(=O)c2nsc3ccccc23)cc1`, the Potency was inconclusive: 13 µM [inhibitor, partial curve]. For `COc1ccc(-c2c(C)c3ccc(O)c(CN4CCN(CCO)CC4)c3oc2=O)cc1OC`, the Potency was inconclusive: 16.4 µM [inhibitor, single point].
